# Where “and” joins values, the source holds several entries; their conditions need not be identical. Equal entries are not always repeated. Structures can show the parent of a compound that is named as a salt. About 620 (11%) of roughly 5,800 compounds showed activity.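 The calls were made as follows: active = score above a cut-off or among the top three wells of a plate; in these data no inactive exceeds 0.85.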 This is a selection; strong and weak results do not stand in their true shares.
# System: primary human hepatic stellate cells (donor 1)
# Experiment: scaled lipid accumulation score (0 = DMSO-like, 1 = nortriptyline-like); higher = stronger HSC inactivation (lipid re-accumulation), active = hit call of the paper
# Conditions: 48 h
# [1] = library stock concentration: 10 mM
# [2] = library stock concentration: 1 mM
# [3] = library stock concentration: 3.33 mM
compound,measurement,setting,value
O=C(O)C1CCNCC1 [Isonipecotic acid],scaled lipid accumulation score,[1],inactive: ≤ -0.055
CN(C)c1cnccn1,scaled lipid accumulation score,[1],inactive: ≤ 0
"CCCCCCCC/C=C\C/C=C\C/C=C\CCCC(=O)NCCO [5(Z),8(Z),11(Z)-Eicosatrienoic Acid Ethanolamide]",scaled lipid accumulation score,[2],inactive: 0.015
CCCCCCCC/C=C\C/C=C\C/C=C\CCCC(=O)NCCO [Mead ethanolamide],scaled lipid accumulation score,[2],inactive: 0.017
C=C(C)[C@@H]1CC[C@]2(C(=O)O)CC[C@]3(C)[C@H](CC[C@@H]4[C@@]5(C)CC[C@H](O)C(C)(C)[C@@H]5CC[C@]43C)[C@@H]12 [Betulinic acid],scaled lipid accumulation score,,inactive: 0.036
same,scaled lipid accumulation score,[3],inactive: ≤ 0
same,scaled lipid accumulation score,[1],inactive: ≤ -0.001
same,scaled lipid accumulation score,library stock concentration: 10.9 mM,inactive: 0.148
CN=c1nc(-c2ccccc2)n(-c2ccccc2)s1,scaled lipid accumulation score,[1],inactive: 0.624 and inactive: 0.215
C1N2CN3CN1CN(C2)C3 [Methenamine],scaled lipid accumulation score,[3],inactive: ≤ 0
same,scaled lipid accumulation score,[1],inactive: ≤ -0.001 and inactive: ≤ 0
same,scaled lipid accumulation score,library stock concentration: 14.3 mM,inactive: ≤ 0
O=C(O)C1=C[C@@H](O)[C@@H](O)[C@H](O)C1 [Shikimic Acid],scaled lipid accumulation score,[3],inactive: ≤ 0
same,scaled lipid accumulation score,[1],inactive: ≤ 0
CCN(CC)CCOc1ccc(C(=C(Cl)c2ccccc2)c2ccccc2)cc1.O=C(O)CC(O)(CC(=O)O)C(=O)O [Clomifene citrate],scaled lipid accumulation score,[1],active: 1.12
C[Se]CC[C@H](N)C(=O)O,scaled lipid accumulation score,[1],inactive: ≤ 0
O=C1NCCN1c1ncc([N+](=O)[O-])s1 [Niridazole],scaled lipid accumulation score,,inactive: ≤ 0
CCCCCN(C)CCC(O)(P(=O)(O)O)P(=O)(O)O [Ibandronate sodium],scaled lipid accumulation score,[1],inactive: ≤ 0
CCCCCN(C)CCC(O)(P(=O)(O)O)P(=O)(O)O [Ibandronate],scaled lipid accumulation score,library stock concentration: 6.3 mM,inactive: ≤ 0
CC(C)(C)C(=O)OCOC(=O)[C@@H]1N2C(=O)[C@@H](/N=C/N3CCCCCC3)[C@H]2SC1(C)C [Pivmecillinam hydrochloride],scaled lipid accumulation score,,inactive: ≤ 0
O=C(c1ccc(F)cc1)C1CCN(CCCCc2ccccc2)CC1 [4-(4-Fluorobenzoyl)-1-(4-phenylbutyl)-piperidine oxalate],scaled lipid accumulation score,[1],inactive: 0.378
CC(C)OC(=O)C(C(=O)OC(C)C)=C1SC=CS1 [Malotilate],scaled lipid accumulation score,[3],inactive: ≤ 0
same,scaled lipid accumulation score,[1],inactive: ≤ 0
Cc1ncc([N+](=O)[O-])n1C,scaled lipid accumulation score,[1],inactive: ≤ 0
CNc1ncnc2c1ncn2[C@@H]1O[C@H](CO)[C@@H](O)[C@H]1O [N6-methyladenosine (m6A)],scaled lipid accumulation score,[3],inactive: ≤ 0
same,scaled lipid accumulation score,[1],inactive: ≤ -0.001
CNc1ncnc2c1ncn2[C@@H]1O[C@H](CO)[C@@H](O)[C@H]1O [N6-methyladenosine],scaled lipid accumulation score,,inactive: ≤ 0
CNc1ncnc2c1ncn2[C@@H]1O[C@H](CO)[C@@H](O)[C@H]1O [N6-Methyladenosine],scaled lipid accumulation score,[1],inactive: ≤ -0.021
"OCC(O)CN1CCN(c2ccccc2)CC1 (racemic) [Dropropizine (R,S)]",scaled lipid accumulation score,,inactive: ≤ 0
N[C@@H](CC(=O)O)C(=O)O [L-Aspartic acid],scaled lipid accumulation score,[1],inactive: ≤ 0
CCCCN1C[C@H](O)[C@@H](O)[C@H](O)[C@H]1CO [Miglustat],scaled lipid accumulation score,library stock concentration: 9.1 mM,inactive: ≤ 0
C[C@@H](O)[C@H]1C(=O)N2C(C(=O)O)=C(SCCNC=N)C[C@H]12 [Imipenem monohydrate],scaled lipid accumulation score,[1],inactive: 0.097
C[C@@H](O)[C@H]1C(=O)N2C(C(=O)O)=C(SCCNC=N)C[C@H]12 [Imipenem],scaled lipid accumulation score,,inactive: ≤ 0
same,scaled lipid accumulation score,library stock concentration: 6.7 mM,inactive: ≤ 0
c1ccc2c(c1)CCCC2C1=NCCN1 (configuration not stated) [Tetrahydrozoline HCl],scaled lipid accumulation score,[3],inactive: ≤ 0
same,scaled lipid accumulation score,[1],inactive: ≤ -0.001
c1ccc2c(c1)CCCC2C1=NCCN1 (configuration not stated) [Tyzine],scaled lipid accumulation score,[1],inactive: ≤ 0
c1ccc2c(c1)CCCC2C1=NCCN1 (configuration not stated) [Tetrahydrozoline hydrochloride],scaled lipid accumulation score,,inactive: ≤ 0
same,scaled lipid accumulation score,[1],inactive: ≤ 0
O=C(O)Cn1c(C(=O)Nc2nc(-c3ccccc3Cl)cs2)cc2ccccc21,scaled lipid accumulation score,[1],inactive: ≤ -0.001
O=C(CN=C(c1ccccc1)c1ccccc1)OCc1ccccc1 [N-(diphenylmethylene) Glycine benzyl ester],scaled lipid accumulation score,[2],inactive: 0.004
Cc1cccc(C)c1NC(=O)c1ccccc1C(=O)O,scaled lipid accumulation score,[1],inactive: ≤ 0
O=C(COc1cccc2c(=O)[nH]ccc12)c1ccccc1,scaled lipid accumulation score,[3],inactive: ≤ -0.009
same,scaled lipid accumulation score,[1],inactive: 0.218 and inactive: 0.022
CCNC(=O)[C@H]1O[C@@H](n2cnc3c(N)nc(NCCc4ccc(CCC(=O)O)cc4)nc32)[C@H](O)[C@@H]1O,scaled lipid accumulation score,[1],inactive: ≤ -0.07
CC(C)NCC(O)COc1cccc2ccccc12 (racemic) [Propranolol hydrochloride (+/-)],scaled lipid accumulation score,library stock concentration: 6.8 mM,inactive: 0.363
same,scaled lipid accumulation score,[1],inactive: 0.457
C[C@](N)(Cc1ccc(O)cc1)C(=O)O [L-alpha-Methyl-p-tyrosine],scaled lipid accumulation score,[1],inactive: 0.166
CC(=O)N[C@@H](CC(C)C)C(=O)N[C@@H](CC(C)C)C(=O)N[C@H](C=O)CCCNC(=N)N [Leupeptin Hemisulfate],scaled lipid accumulation score,[3],inactive: ≤ -0.009
same,scaled lipid accumulation score,[1],inactive: ≤ 0
CS(=O)(=O)c1ccc([C@@H](O)[C@@H](CF)NC(=O)C(Cl)Cl)cc1 [Florfenicol],scaled lipid accumulation score,,inactive: ≤ 0
same,scaled lipid accumulation score,[3],inactive: ≤ 0
same,scaled lipid accumulation score,[1],inactive: ≤ -0.001
FCOC(C(F)(F)F)C(F)(F)F,scaled lipid accumulation score,[1],inactive: ≤ 0
CCCCCCCCCCCC(=O)c1nc2ncccc2o1,scaled lipid accumulation score,[2],inactive: ≤ 0
CCCCCCCCCCCCCCCC(=O)O[C@H](CC(=O)O)C[N+](C)(C)C,scaled lipid accumulation score,[1],inactive: 0.027
CN1CCN(c2ccc3nc(-c4c(N)c5c(F)cccc5[nH]c4=O)[nH]c3c2)CC1,scaled lipid accumulation score,library stock concentration: 400 uM,active: 0.945
same,scaled lipid accumulation score,library stock concentration: 2 mM,active: 1.11
same,scaled lipid accumulation score,[1],active: 1.08
C[N+](C)(C)CCOP(=O)(O)OP(=O)([O-])OC[C@H]1O[C@@H](n2ccc(N)nc2=O)[C@H](O)[C@@H]1O [Citicoline],scaled lipid accumulation score,[1],inactive: ≤ -0.027
C[N+](C)(C)CCOP(=O)(O)OP(=O)([O-])OC[C@H]1O[C@@H](n2ccc(N)nc2=O)[C@H](O)[C@@H]1O [Cytidine 5'-diphosphocholine sodium salt hydrate],scaled lipid accumulation score,[1],inactive: ≤ -0.07
CCC=CCC=CCC=CCC=CCCCCC(=O)OCC [Stearidonic Acid ethyl ester],scaled lipid accumulation score,[2],inactive: ≤ 0
Nc1ccc(S(=O)(=O)NC(=O)c2ccccc2)cc1 [Sulfabenzamide],scaled lipid accumulation score,,inactive: ≤ 0
same,scaled lipid accumulation score,library stock concentration: 7.2 mM,inactive: ≤ 0
same,scaled lipid accumulation score,[1],inactive: 0.019
CC(C)c1nc(N(C)S(C)(=O)=O)nc(-c2ccc(F)cc2)c1/C=C/[C@@H](O)C[C@@H](O)CC(=O)O [Rosuvastatin],scaled lipid accumulation score,[1],inactive: ≤ -0.027
CC(C)c1nc(N(C)S(C)(=O)=O)nc(-c2ccc(F)cc2)c1/C=C/[C@@H](O)C[C@@H](O)CC(=O)O [Rosuvastatin Calcium],scaled lipid accumulation score,[3],inactive: ≤ 0
same,scaled lipid accumulation score,[1],inactive: ≤ 0
C=C(CC)C(=O)c1ccc(OCC(=O)O)c(Cl)c1Cl [Ethacrynic acid],scaled lipid accumulation score,,inactive: 0.135
same,scaled lipid accumulation score,library stock concentration: 6.6 mM,inactive: ≤ -0.006 and inactive: ≤ -0.001
same,scaled lipid accumulation score,[1],inactive: ≤ 0
CCCCCOc1ccc(-c2ccc(-c3ccc(C(=O)N[C@H]4C[C@@H](O)[C@@H](O)NC(=O)[C@@H]5[C@@H](O)[C@@H](C)CN5C(=O)[C@H]([C@@H](C)O)NC(=O)[C@H]([C@H](O)[C@@H](O)c5ccc(O)cc5)NC(=O)[C@@H]5C[C@@H](O)CN5C(=O)[C@H]([C@@H](C)O)NC4=O)cc3)cc2)cc1,scaled lipid accumulation score,[3],inactive: ≤ 0
same,scaled lipid accumulation score,[1],inactive: 0.462
c1cncc(CN2CCC(n3ncc4c(N5CCOCC5)nc(-c5ccc6[nH]ccc6c5)nc43)CC2)c1,scaled lipid accumulation score,[3],active: 1.19
same,scaled lipid accumulation score,[1],active: 1.19
Nc1ccc2cc3ccc(N)cc3nc2c1,scaled lipid accumulation score,[1],inactive: 0.024
CCN=C1N[C@@H]2[C@@H](O)[C@H](O)[C@@H](CO)O[C@@H]2S1 [Thiamet G],scaled lipid accumulation score,[3],inactive: 0.185
same,scaled lipid accumulation score,[1],inactive: ≤ 0
CC(C)C[C@@H]1NC(=O)[C@H](CCCN)NC(=O)[C@H](C(C)C)NC(=O)[C@H](Cc2ccc(O)cc2)N[C@@H](CCC(=O)O)C(=O)N[C@@H](CC(N)=O)C(=O)[C@@H](Cc2ccccc2)NC(=O)[C@H](Cc2ccccc2)NC(=O)[C@@H]2CCCN2C(=O)[C@@H](Cc2ccccc2)NC1=O [Tyrothricin],scaled lipid accumulation score,library stock concentration: 1.6 mM,inactive: ≤ 0
same,scaled lipid accumulation score,[1],inactive: ≤ 0
Nc1ncnc2c1c(I)cn2[C@@H]1O[C@H](CO)[C@@H](O)[C@H]1O [5-Iodotubercidin],scaled lipid accumulation score,[3],inactive: ≤ 0
COc1ccc2cc(C(C)C(=O)O)ccc2c1 (stereo not drawn) [Naproxen(+)],scaled lipid accumulation score,library stock concentration: 8.7 mM,inactive: 0.014
same,scaled lipid accumulation score,[1],inactive: ≤ 0
Nc1ncnc2c1nc(Sc1ccc(Cl)cc1)n2C1OC2COP(=O)(O)O[C@@H]2[C@@H]1O (some centres not stated) [8-(4-Chlorophenylthio)-cAMP sodium],scaled lipid accumulation score,[1],inactive: ≤ 0
COc1cc2nccc(Oc3ccc(NC(=O)Nc4ccc(F)cc4F)c(F)c3)c2cc1OC,scaled lipid accumulation score,[1],active: 1.22
CC(C)c1ccc(C(=O)c2cccs2)c(SCCCCCCCCN(C)C)n1.O=C(O)C(=O)O,scaled lipid accumulation score,[1],active: 1.24
CC(C)=CCC/C(C)=C/CC/C(C)=C/CSCC(=O)O [Farnesylthioacetic acid],scaled lipid accumulation score,[2],inactive: ≤ -0.021
CC(C)=CCC/C(C)=C/CC/C(C)=C/CSCC(=O)O [S-Farnesyl Thioacetic Acid],scaled lipid accumulation score,[2],inactive: 0.018
O=C(O)C1=CCCNC1 [Guvacine hydrochloride],scaled lipid accumulation score,[1],inactive: 0.31 and inactive: ≤ 0
Cc1cc(CC(=O)O)n(C)c1C(=O)c1ccc(Cl)cc1 [Zomepirac sodium],scaled lipid accumulation score,library stock concentration: 6.9 mM,inactive: ≤ 0
same,scaled lipid accumulation score,[1],inactive: ≤ 0
Cc1cc(CC(=O)O)n(C)c1C(=O)c1ccc(Cl)cc1 [Zomepirac sodium salt],scaled lipid accumulation score,,inactive: ≤ 0

# From the supplement of paper PMC9135407
